# In PubChem BioAssay (NCI):
# A structure can be active in one record and inactive in another.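 In brief: 96-well plates, 48 h treatment, single concentration, percent growth endpoint.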 For part of its entries the source gives two or more results. The list is limited to them. Rule for the calls: active = growth percent below 10; inactive = the rest. An entry can have further records. The screen tested this drug many times, at its own concentration, as given; each value is one run. Brackets with × give the number of equal values in this list.
# Test system: A549/ATCC NSCLC
# Test: NCI-60 one-dose screen, 48 h (100 = growth as untreated, 0 = no growth, -100 = all killed)
compound,measurement,setting,value
COc1cccc2c1C(=O)c1c(O)c3c(c(O)c1C2=O)C[C@@](O)(C(=O)CO)C[C@@H]3OC1CC(N)C(O)C(C)O1 (stereo not given in full),growth,"0.25 µM, runs of 2012","inactive: 34.8 (2×), 28.4, 32.7 (2×), 32.3, 33.2, 33.1 (3×), 33.6 (2×), 33.3 (2×), 35.4 (2×), 28.3, 27.1, 29.1, 31.8 (2×), 33.9, 32, 29.2, 29.9, 36.2 (2×), 29, 30.9 (2×), 31, 34.5, 38.2, 36.3 (2×), 35.1, 33, 37.1, 37.3, 32.6, 31.1, 34.3 (3×), 35.2 (2×), 38.5, 26.6, 24.3, 37.7 (2×), 34.6, 36.6 (2×), 45.4, 40.7, 38.1, 37.6, 34.9, 37.2, 30, 31.9, 34.2, 31.2, 40.1, 28.2, 37.4, 32.9, 31.5%"
same,growth,"0.25 µM, runs of 2013","inactive: 31.9, 34.1 (2×), 34.6, 30, 35.3 (2×), 33.3, 40.4, 33, 33.6, 32.3, 39.9 (2×), 36.8 (2×), 42.5, 34.9, 37.2, 39.3 (2×), 34, 32.9, 38.3 (4×), 33.5 (2×), 38.1, 32.7, 37.1 (2×), 37.7 (2×), 36.3, 37.3 (2×), 42.6, 41.9, 46, 37.9, 33.1, 34.3, 41.6, 40.1, 37.5 (2×), 36.9, 39.1 (2×), 33.9 (2×), 38.2, 34.8 (2×), 40.8, 38.7, 36.6 (2×), 30.2 (2×), 24.7, 40, 30.8, 35.8, 34.5, 31.2, 35.2%"
same,growth,"0.25 µM, runs of 2014","inactive: 39.2, 40.7 (2×), 37.2, 34.8, 37.5 (3×), 44.9 (2×), 36.2, 33.3 (3×), 31.9, 33 (2×), 33.5, 36.4 (2×), 37.7, 36.9 (2×), 37.3, 38.9 (2×), 37.6, 40.1, 42.9, 38.8, 42.4, 38.7 (2×), 38.5, 41.8, 42.3, 43.1, 43.3, 45.9, 43, 45.8, 43.8, 47.8, 45.1, 41.7, 37, 39, 36.8 (2×), 33.7, 43.5, 32 (2×), 40.6, 31.2, 34.4, 32.2, 36.5, 35.4 (2×), 34.3, 33.9, 26.2, 31.3, 35.8, 30.4, 27.8, 29.6, 30, 28.4%"
same,growth,"0.25 µM, runs of 2015","inactive: 39.8, 33.4, 30.7 (2×), 38.2 (2×), 32.9, 30.1, 33.1, 36.6, 34.1, 33.9, 32.1 (2×), 36.2 (3×), 40 (2×), 35.2 (2×), 35.1 (3×), 31.4 (2×), 34.8 (2×), 33.7 (3×), 28.4, 37.5, 28.8, 32 (2×), 31.5, 29.6, 31.8, 28.6, 29.8, 36.5 (3×), 36.4, 34.3, 34.4, 35.3 (2×), 37.7, 36.8 (3×), 31.2, 30, 35.8, 28.9, 28.2, 33.3, 31.6, 34, 36.9, 25.5, 33 (2×), 36.3, 38.1, 41.9, 31.7, 40.7, 39.3, 37.1, 42.4, 37.8, 37.3, 37, 38.8, 37.2, 39.2, 39.9%"
same,growth,"0.25 µM, runs of 2016","inactive: 36.2 (2×), 32.1, 33.3, 37.8, 42.6, 34.6 (2×), 41.9, 38.5 (4×), 37.7 (2×), 39 (2×), 37, 34.1, 27.2, 35.4 (2×), 33.9, 45, 34.5, 34.8, 32.3, 35.3, 35.2, 39.2 (3×), 25.4, 37.5, 36.6, 31.8, 36.3 (2×), 36.9 (3×), 35.1 (2×), 37.4 (2×), 35.8, 37.6, 35.9, 40.4, 34.9, 38.2 (2×), 40.8, 36.4, 38.7, 37.3 (2×), 37.1 (2×), 38.1, 38.3 (2×), 37.2 (2×), 38.8, 34.4, 42.9, 40.2 (2×), 42.4, 46.6, 44.9, 42.5, 44.3, 44.2, 40.3, 39.9, 39.3, 37.9%"
same,growth,"0.25 µM, runs of 2017","inactive: 42.8, 41.8 (2×), 37.1, 40.1, 35.2, 32.9, 35.9, 32.3 (2×), 39.3 (2×), 40.2, 40.7, 36.3 (3×), 37.4, 33.6 (3×), 33.2, 33.4, 31.5 (2×), 38.2 (2×), 30.3, 36.8 (2×), 30.6, 37.3 (2×), 38.1, 37.2, 39 (2×), 36.6 (2×), 33.5, 32.4 (2×), 37.7, 34.6 (3×), 36.5, 31.8, 39.1, 39.2, 33, 40.3 (2×), 32.2, 32.6, 35.4, 30, 37.8, 34.3, 33.1, 40.6, 35.8, 30.9, 29.3, 42.4, 32.5, 32, 31.7, 33.9%"
same,growth,"0.25 µM, runs of 2018","inactive: 36.9, 32.1, 32.9 (3×), 30, 40.3, 41.6, 36.2, 35.1 (2×), 34.2, 39.2, 37.3, 37.2 (2×), 38.7, 40, 38.8, 37.4, 38.6, 42.7, 37.1 (2×), 35.2 (3×), 33.9, 32.2, 39.1, 34, 34.1 (2×), 33.7, 34.8, 35.3, 35.6, 38.3, 31.6, 31.5, 36.4, 29.9, 27.9, 34.4, 29.3, 33.5, 25.9, 31.9%"
same,growth,"0.25 µM, runs of 2019","inactive: 37.9, 31.3 (2×), 36.5 (2×), 33.3, 34.4 (2×), 40.1, 32.4 (2×), 35.6, 39, 34.5 (3×), 36.9, 31.9 (2×), 40.3, 38.8, 36.8, 35.4 (2×), 33 (2×), 36.6, 37.8, 38.1, 34.8, 30.9, 41.9, 44.2, 39.8, 32.8, 34.1 (2×), 31.2, 33.9, 34, 35.3, 32.9, 29.6, 30.4, 30.8, 33.6 (2×), 37.5, 33.2, 32.7%"
same,growth,"0.25 µM, runs of 2020","inactive: 33.4, 35.4 (2×), 31.8, 36.9 (2×), 32.4, 36.6 (2×), 34, 35.1 (2×), 33.8, 32.7, 39.9, 38.9, 40.6, 38.7, 37.6 (2×), 37.8, 39, 38.6%"
same,growth,"0.25 µM, runs of 2021","inactive: 38.2 (2×), 38.1, 36.6, 37.4, 38.3 (2×), 34.8 (2×), 39.2 (2×), 36.8 (2×), 35.8, 37.6, 32.6, 34.4 (2×), 35.4 (3×), 37.1 (2×), 35.6, 32.8, 33.9, 34.1, 34.5, 37.8, 32.2, 35.9, 37.7, 35.2, 37.5, 33.1, 31.2 (3×), 38.8, 41.4, 30.9, 32.9, 36.4, 31, 32, 42.7, 42.6%"
same,growth,"0.25 µM, runs of 2022","active: -20.6%, -12.6%, -6.16% and inactive: 33.6, 35.1, 37.1, 20.4, 37.9, 42.5, 30.5, 43.1, 42.8, 35.4, 36.5, 37, 33.2, 50.3, 55.8, 48, 46.8, 50, 40.6, 37.7, 33.1, 37.6%"
same,growth,"25 µM, runs of 1991","active: 0.914, 6.49, 3.6, 0.264, 0.57, 0.735, -7.07, -5.56, -3.64, 8.83, 2.39, -18.4, 1.55, 8.41, 1.88, 2.65, -16.5, -0.901%"
same,growth,"25 µM, runs of 1992","active: -10.6, -16.1, 1.02, 3.23, -16, -8.4, -8.93, 3.59, -25.7, -19.1, 4.24, 2.17, 2.88, -17.5, -22.6, 3.82, 6.57, 6.15, 7.86, -11.6, 5.98, 1.11 (2×), 5.02, 3.95, -6.84, -8.35 (2×), -0.118, -4.12, 0.42, -28.3, -62, 2.16, 0.139, 3.02, -4.11, 5.06, 3.93, 0.704, 1.8 (2×), 6.91, -12.8, -7.56, -17.6, -0.307, 6.07, 2.84 (3×), 6.82, -32.4, -2.88, 6.58, 9.01, 0.671, 3.11, 0.612, -17.3, 8.47, -34.3, 0.0754, -1.26, 7.26, 4.33, 3.67, 5.14, 2.5, -9.95, 3.08, 2.37, -3.12, -11.8, -26, -21.6, 9.06, 2.02, 5.44, 1.86, -2.7, 1.88, -7.24, 4.02, 0.992, -1.61, 1.49, -6.99, 9.79, -1.72, 2.94, 3.94, 1.45, -0.526, -7.17, -18.8, -11.3, -9.92, 7.12, 5.25, 0.514, -4.55, 2.18, -5.06, 9.77, 2, 2.98, -27.8, 3.88, -12.3, 1.08, 2.28, 0.247, 2.23, -2.79, 0.893, 2.13% and inactive: 15.7, 10, 10.7, 16.4%"
same,growth,"25 µM, runs of 1993","active: -17.1, 9.4, 3.17, 2.66, -10.9, 6.98, 9.74, 7.02, -8.8, 5.57, -0.692, 2.95, 8.86, 9.56, 4.39, -1.37, 5.93, -10.1, 0.201, -4.06, 4.68, 2.62, 2.67, 5.22, 9.2, 1.91, 0.061, -35.4, 3.35, 3.9, 6.44, -13.7, 6.24, 3.96, -7.4, -2.38, 3.21, -3.55, 3.65, -30.4, 3.56, -13.3% and inactive: 13.8, 12.3, 10.5, 10.2, 13.7, 10.1%"
same,growth,"25 µM, runs of 1994","active: 3.51, -9.54, -2.81, 5.36, 2.84, 2.92, -20.9, -8.23, 4.44, -11, -15.3, 2.73, 3.9, -16.8, -2.01, 4.36, -3.77, 0.398, -14.3, 6.72, 3.53, 1.87, -1.08, 7.89, 8.19, 4.2, -3.15, 4.64, 6.27, 4.03, 5.95, -4.89, 1.73% and inactive: 92.8%"
